Results as given in paper PMC3501490, “An Investigation of Hierachical Protein Recruitment to the Inhibitory Platelet Receptor, G6B-b” (PLoS ONE, 2012).
No constants are given. Whether binding was seen depends on the method and setting. For part of these data: In cells and extracts the contact can be indirect. Some binding calls cover weakened binding; strength is not graded here.

B1: PLCγ2 (endogenous, human platelets) (enzyme, UniProt P16885 1-1265)
chain: MSTTVNVDSLAEYEKSQIKRALELGTVMTVFSFRKSTPERRTVQVIMETRQVAWSKTADKIEGFLDIMEIKEIRPGKNSKDFERAKAVRQKEDCCFTILYGTQFVLSTLSLAADSKEDAVNWLSGLKILHQEAMNASTPTIIESWLRKQIYSVDQTRRNSISLRELKTILPLINFKVSSAKFLKDKFVEIGAHKDELSFEQFHLFYKKLMFEQQKSILDEFKKDSSVFILGNTDRPDASAVYLHDFQRFLIHEQQEHWAQDLNKVRERMTKFIDDTMRETAEPFLFVDEFLTYLFSRENSIWDEKYDAVDMQDMNNPLSHYWISSSHNTYLTGDQLRSESSPEAYIRCLRMGCRCIELDCWDGPDGKPVIYHGWTRTTKIKFDDVVQAIKDHAFVTSSFPVILSIEEHCSVEQQRHMAKAFKEVFGDLLLTKPTEASADQLPSPSQLREKIIIKHKKLGPRGDVDVNMEDKKDEHKQQGELYMWDSIDQKWTRHYCAIADAKLSFSDDIEQTMEEEVPQDIPPTELHFGEKWFHKKVEKRTSAEKLLQEYCMETGGKDGTFLVRESETFPNDYTLSFWRSGRVQHCRIRSTMEGGTLKYYLTDNLTFSSIYALIQHYRETHLRCAEFELRLTDPVPNPNPHESKPWYYDSLSRGEAEDMLMRIPRDGAFLIRKREGSDSYAITFRARGKVKHCRINRDGRHFVLGTSAYFESLVELVSYYEKHSLYRKMRLRYPVTPELLERYNMERDINSLYDVSRMYVDPSEINPSMPQRTVKALYDYKAKRSDELSFCRGALIHNVSKEPGGWWKGDYGTRIQQYFPSNYVEDISTADFEELEKQIIEDNPLGSLCRGILDLNTYNVVKAPQGKNQKSFVFILEPKQQGDPPVEFATDRVEELFEWFQSIREITWKIDTKENNMKYWEKNQSIAIELSDLVVYCKPTSKTKDNLENPDFREIRSFVETKADSIIRQKPVDLLKYNQKGLTRVYPKGQRVDSSNYDPFRLWLCGSQMVALNFQTADKYMQMNHALFSLNGRTGYVLQPESMRTEKYDPMPPESQRKILMTLTVKVLGARHLPKLGRSIACPFVEVEICGAEYDNNKFKTTVVNDNGLSPIWAPTQEKVTFEIYDPNLAFLRFVVYEEDMFSDPNFLAHATYPIKAVKSGFRSVPLKNGYSEDIELASLLVFCEMRPVLESEEELYSSCRQLRRRQEELNNQLFLYDTHQNLRNANRDALVKEFSVNENQLQLYQEKCNKRLREKRVSNSKFYS
B2: Csk SH2 domain (domain or fragment, UniProt P41240 82-171)
chain: WFHGKITREQAERLLYPPETGLFLVRESTNYPGDYTLCVSCDGKVEHYRIMYHASKLSIDEEVYFENLMQLVEHYTSDADGLCTRLIKPK

Assays:
[1] = target: T1, G6B-b pY237 phosphopeptide (biotinylated 60-mer, amino acids 182 to 241, ITSM phosphorylated) (human) (UniProt O95866); experiment: pull-down; biotinylated G6B-b peptides on Streptactin beads incubated with pre-cleared NP-40 lysate of washed human platelets activated with 1 ug/ml CRP for 90 seconds, 4°C, 30 minutes; Western blotting; only the target purified
T1 sequence (peptide, phosphotyrosine at 237; biotin (end not stated)): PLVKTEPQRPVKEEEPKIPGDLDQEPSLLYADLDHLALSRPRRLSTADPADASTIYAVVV

[2] = target: T2, G6B-b pY211 phosphopeptide (biotinylated 60-mer, amino acids 182 to 241, ITIM phosphorylated) (human) (UniProt O95866); experiment: pull-down; direct pull down assay: peptide on Streptactin beads incubated with equimolar purified SH2 domains (100 pM [sic] each for the tandem SH2 domains), 250 µl PBS, 30 minutes, room temperature; bound and unbound fractions on Coomassie-stained gels; both purified
T2 sequence (peptide, phosphotyrosine at 211; biotin (end not stated)): T1 sequence (peptide, phosphotyrosine at 237; biotin (end not stated))

[3] = target: T1, G6B-b pY237 phosphopeptide (biotinylated 60-mer, amino acids 182 to 241, ITSM phosphorylated) (human); experiment: as above

Binder | binding [1] | binding [2] | binding [3]
B1 | binds |  | 
B2 |  | no binding | no binding
